From PubChem BioAssay AID485281 (National Center for Advancing Translational Sciences (NCATS), 2010)
The campaign covered roughly 350,000 compounds. About 260 (0.074%) were called active. Inconclusive means that the source gave no clear call. Such entries were picked first, then a sample of the others. Calls follow the shape of the dose curve; as a rule, active = well fitted inhibition curve with a large enough effect; inconclusive = small, poorly fitted or top-dose-only effect; inactive = no such curve, though single readings can be large or run the other way. A potency beside an inconclusive call is a rough fit, not a confirmed value.

What follows are compounds tested against Ferritin light chain (Equus caballus) (UniProt P02791) (assay: qHTS Assay for Identification of Novel General Anesthetics). Conditions: apoferritin/1-aminoanthracene competitive binding, fluorescence; activity change, negative = displacement: at 77.5 µM (top of the series).
How it was run: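 Steps: apoferritin (10 uM) was premixed with half-saturated 1-AMA in PBS, compounds were pin-transferred, plates stood 10 min at room temperature, fluorescence was read at 380/535 nm, and curves were fitted with a Hill equation.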
% is scaled to controls: 0 for no effect and ±100 for the full control effect; tags tell the direction and shape of the fitted curve.
Also: nearly all actives have a fitted effect of over 20% in size.

Chain of UniProt P02791 (P02791 whole entry, looked up): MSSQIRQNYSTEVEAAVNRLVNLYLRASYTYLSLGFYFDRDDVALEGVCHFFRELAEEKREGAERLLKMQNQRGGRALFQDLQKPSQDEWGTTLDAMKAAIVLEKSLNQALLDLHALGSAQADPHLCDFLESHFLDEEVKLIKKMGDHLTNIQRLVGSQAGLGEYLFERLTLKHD

Structure (SMILES)	Potency	activity change, negative = displacement
O=C(CC1C(=O)NCCN1Cc1cccc(F)c1F)NCCCC1CCCC1 (stereo not drawn)	active: 31.6 µM	
Cc1cc(/C=C2\Sc3ccccc3N2C)cc(C)[n+]1CC1CCCO1 (stereo not drawn)	inconclusive: 15.8 µM [inhibitor, partial curve]	
Cc1cc(C(=O)NNC(=O)/C=C/c2ccccc2Cl)c(C)o1	inconclusive: 28.2 µM [inhibitor, single point]	
CCCCN1C(=O)C(O)(CC(=O)c2c(C)coc2C)c2ccccc21 (stereo not drawn)	inconclusive: 35.5 µM [inhibitor, partial curve]	
CC1CCc2c(nc3nc[nH]n3c2=O)C1 (stereo not drawn)		inactive: 0.784%
COc1ccc(N(C(=O)c2ccncc2)S(=O)(=O)c2ccc(OC)c(OC)c2)cc1	inconclusive: 28.2 µM [inhibitor, partial curve]	
COc1ccc(/C=C2\SC(=S)N(CCC(=O)NCCCN3CCOCC3)C2=O)cc1		inactive: -13.5%
CC1CCCCN1c1nc(-c2ccncc2)nc2ccccc12 (stereo not drawn)	inconclusive: 28.2 µM [inhibitor, partial curve]	
C=CC[n+]1c(C)csc1Nc1cccc(Br)c1	inconclusive: 14.1 µM [inhibitor, partial curve]	
COc1ccccc1C(=O)COC(=O)c1ccc(N(C)C)cc1	inconclusive: 31.6 µM [inhibitor, partial curve]	
COc1ccc(S(=O)(=O)N(Cc2cc3ccc(OC)cc3[nH]c2=O)CC2COCCO2)cc1 (stereo not drawn)	inconclusive: 25.1 µM [inhibitor, partial curve]	
COc1ccccc1OCC(=O)NN=C(Cc1ccccc1)Cc1ccccc1	inconclusive: 28.2 µM [inhibitor, partial curve]	
C=CCc1c(C)c(C#N)c2nc3ccccc3n2c1N1CCCCC1		inactive: -5.49%
CC12CCC(C(=O)N(c3ccccc3Cl)C1=O)C2(C)C (stereo not drawn)	inconclusive: 50.1 µM [inhibitor, single point]	
CC1=C/C(=N\N=C2\NC(=O)C(CC(=O)Nc3ccccc3F)S2)CC(C)(C)C1 (stereo not drawn)	inconclusive: 31.6 µM [inhibitor, partial curve]	
COC(=O)C1=C(C)N(Cc2ccccc2)C(=NCc2ccc(OC)cc2)N[C@H]1c1cccc(F)c1	inconclusive: 14.1 µM [inhibitor, partial curve]	
Cc1ccc(C(=O)Nc2ccc(S(=O)(=O)N3CCCC3)cc2)s1	inconclusive: 28.2 µM [inhibitor, partial curve]	
CC(=O)c1ccc(NS(=O)(=O)c2ccc(N)cc2)cc1	inconclusive: 35.5 µM [inhibitor, partial curve]	
CC1CCN(c2cc(N)c(Cl)cc2[N+](=O)[O-])CC1	inconclusive: 39.8 µM [inhibitor, partial curve]	
COc1ccc(O)c(/C=C2/SC(=S)N(Cc3ccccc3)C2=O)c1	inconclusive: 15.8 µM [inhibitor, partial curve]	
CC(CNC(=O)Cn1c(-c2cccs2)cc2ccccc21)c1ccccc1 (stereo not drawn)		inactive: 79.4%
O=C(c1cc2ccccc2o1)N(C1CC1)C1(C(=O)Nc2ccccc2)CCCC1	inconclusive: 14.1 µM [inhibitor, partial curve]	
CSCC[C@H](N)C(=O)N[C@@H](CCCN=C(N)N)C(=O)N[C@@H](Cc1ccccc1)C(=O)N[C@@H](Cc1ccccc1)C(=O)N[C@H](C(=O)O)C(C)C		inactive: -6.3%

Structure (SMILES)	Potency	activity change, negative = displacement
O=C(c1ccccc1)c1coc2ccc(O)c(Cl)c12	inconclusive: 28.2 µM [inhibitor, partial curve]	
Cc1ccccc1Nc1nnc(SCc2cc([N+](=O)[O-])cc3c2OCOC3)s1	inconclusive: 39.8 µM [inhibitor, partial curve]	
COc1ccc(C(=O)N2CCCc3ccccc32)cc1Br	inconclusive: 15.8 µM [inhibitor, partial curve]	
CCC(=O)N1CCCc2cc(S(=O)(=O)N3CCC(C(=O)Nc4ccccc4CC)CC3)ccc21		inactive: 38.9%
O=C(/C=C/c1nc2ccccc2s1)N1CCCCCC1	inconclusive: 35.5 µM [inhibitor, single point]	
CCC1CCCCN1CCCNC(=O)c1ccc2c(c1)N(Cc1ccc(Cl)cc1)C(=O)c1ccccc1S2(=O)=O (stereo not drawn)	inconclusive: 17.8 µM [inhibitor, partial curve]	
CCC(C)[C@H](NC(=O)N1CC(=O)Nc2ccccc21)C(=O)NC(C)CCc1ccccc1 (stereo partly drawn)	inconclusive: 44.7 µM [inhibitor, single point]	
CCOC(=O)Cc1csc(NC(=O)COc2ccc(C)c(C)c2)n1	inconclusive: 35.5 µM [inhibitor, partial curve]	
O=C(O)CSc1nnc(-c2cc3ccccc3o2)n1-c1ccccc1		inactive: 11.4%
O=C(NCc1ccccc1)Nc1cccn(Cc2ccc(Cl)cc2)c1=O	inconclusive: 5.62 µM [inhibitor, full curve]	
COc1ccc(-c2cc(N)n(S(=O)(=O)c3c(F)c(F)c(F)c(F)c3F)n2)cc1OC	inconclusive: 44.7 µM [inhibitor, single point]	
CC(=O)Nc1ccc(C(C#N)c2ccccc2)cc1 (stereo not drawn)	inconclusive: 35.5 µM [inhibitor, single point]	
O=C(NCc1cccs1)c1cnc2ccccn2c1=O		inactive: -12%
O=C(COC(=O)COc1ccc(Nc2ccccc2)cc1)NCc1ccco1	inconclusive: 35.5 µM [inhibitor, partial curve]	
Nc1ccc2oc(CCc3ccccc3)nc2c1	inconclusive: 35.5 µM [inhibitor, partial curve]	
NC(=O)c1ccc(Oc2ncc(C(F)(F)F)cc2Cl)cc1	inconclusive: 14.1 µM [inhibitor, partial curve]	
COc1cc(C)c(S(=O)(=O)NOCc2ccccc2)c(C)c1C	inconclusive: 22.4 µM [inhibitor, partial curve]	
c1ccc(C2[C@H]3CN(CC4CCCCC4)[C@H](c4ccccc4)C34CC2(c2cccnc2)C4)cc1 (stereo partly drawn)	inconclusive: 12.6 µM [inhibitor, partial curve]	
COc1ccccc1OCC(=O)N/N=C1\CCc2ccccc21	inconclusive: 56.2 µM [inhibitor, single point]	
Cc1cccc(C(=O)N2CCCC(c3nc(-c4ccc(F)cc4)no3)C2)c1 (stereo not drawn)	inconclusive: 25.1 µM [inhibitor, partial curve]	
O=S1(=O)C=C(SCCN2CCCCC2)c2ccccc21	inconclusive: 25.1 µM [inhibitor, partial curve]	
CCN(c1ccc(NC(=O)COC(=O)CCC(=O)c2ccc(F)cc2)cc1)C(C)C	inconclusive: 35.5 µM [inhibitor, partial curve]	
O=C1Nc2ccc(Cl)cc2C12Nc1ccccc1-c1nnc(SCc3ccccc3F)nc1O2 (stereo not drawn)	inconclusive: 20 µM [inhibitor, partial curve]	

Structure (SMILES)	Potency	activity change, negative = displacement
CCOC(=O)c1c(C)[nH]c(C(=O)COC(=O)CSCC(=O)N(CC)CC)c1C	inconclusive: 22.4 µM [inhibitor, partial curve]	
CCCCCOC(=O)Nc1ccc(S(=O)(=O)Nc2cccc([N+](=O)[O-])c2)cc1	inconclusive: 50.1 µM [inhibitor, single point]	
CC(Sc1nc(-c2ccccc2)cc(C(F)(F)F)n1)C(=O)N1CCCCC1 (stereo not drawn)	inconclusive: 31.6 µM [inhibitor, partial curve]	
CCCCCC1(C)NC(=S)N(c2ccccc2)N1 (stereo not drawn)		inactive: -4.32%
O=C(Nc1ccc(Br)cc1Cl)c1cnccn1		inactive: -1.94%
CCN(CC1CCCO1)C(=O)c1cc(COc2ccc(OC)cc2Cl)on1 (stereo not drawn)	inconclusive: 56.2 µM [inhibitor, single point]	
O=c1cc(-c2cccnc2)oc2c1ccc1ccccc12		inactive: -8.96%
O=C(COC(=O)c1cc(=O)c2ccccc2o1)Nc1ccc2ccccc2c1	inconclusive: 31.6 µM [inhibitor, partial curve]	
CC(C)Cn1c(N)c(C(=O)COC(=O)c2ccc(O)cc2)c(=O)n(C)c1=O	inconclusive: 31.6 µM [inhibitor, single point]	
O=S(=O)(Nc1nc2n(n1)C(c1ccc(F)cc1)C=C(c1ccccc1)N2)c1ccc(Cl)cc1 (stereo not drawn)	inconclusive: 50.1 µM [inhibitor, single point]	
CC(C)CC(=O)Nc1ccc(C(=O)NN2C(=O)c3ccccc3C2=O)cc1		inactive: -14.1%
Cc1onc(-c2ccc(F)cc2F)c1C(=O)Nc1cccc(C(F)(F)F)c1	inconclusive: 39.8 µM [inhibitor, single point]	
CCOC(=O)c1c(C)oc2c1c1c(c3ccccc32)OCN(Cc2cccnc2)C1		inactive: -8.55%
CCOC(=O)c1ccc(NC(=O)CSc2nc3c(c(=O)n2C)SC(C)C3)cc1 (stereo not drawn)	inconclusive: 22.4 µM [inhibitor, partial curve]	
Cc1ccc(-c2cc3ccccc3nc2N)cc1		inactive: -14.6%
Cc1cc(C)cc(COn2ccnc2)c1	inconclusive: 25.1 µM [inhibitor, partial curve]	
O=C(Nc1ccccc1)c1cccc(S(=O)(=O)Nc2cccc(F)c2)c1	inconclusive: 31.6 µM [inhibitor, single point]	
O=C(N=Nc1c(O)[nH]c2ccccc12)c1ccc(CN2CCOCC2)cc1		inactive: -7.14%
COc1ccc(NC(=O)c2coc(C)c2)cc1		inactive: -10.9%
CCc1nnc(NC(=O)c2nc(SCc3ccccc3C)ncc2Cl)s1	inconclusive: 11.2 µM [inhibitor, single point]	
Clc1ccc(-c2csc(NNC3=NCCCCC3)n2)cc1	inconclusive: 12.6 µM [inhibitor, partial curve]	
O=C1C=C(c2cccs2)CC(c2cccs2)C1n1cnc([N+](=O)[O-])c1 (stereo not drawn)	inconclusive: 12.6 µM [inhibitor, partial curve]	
